Results as given in patent US6509443.

Target: T1, human IGFBP-1 (human, UniProt P08833 26-259)
T1 construct: mature
T1 sequence (looked up): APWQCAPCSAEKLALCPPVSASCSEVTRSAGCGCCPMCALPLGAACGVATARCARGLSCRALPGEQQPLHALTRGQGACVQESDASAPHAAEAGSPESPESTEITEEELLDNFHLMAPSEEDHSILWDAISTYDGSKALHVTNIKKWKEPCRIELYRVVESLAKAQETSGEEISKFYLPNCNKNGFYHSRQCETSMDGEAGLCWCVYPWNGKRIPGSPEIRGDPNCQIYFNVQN
Assay: competitive phage ELISA
Protocol: Phage particles were harvested and resuspended in PBS buffer as described in Lowman, H. B., "Phage Display of Peptide Libraries on Protein Scaffolds," in Cabilly, S. (ed.), *Combinatorial Peptide Library Protocols* (Humana Press Inc.: Totowa, N.J., 1998), pp. 249–264. Then phage concentrations were normalized to yield a maximal ELISA signal of 0.2–0.4 for each mutant (Lowman, in Cabilly, S. (ed.), supra). Threefold serial dilutions of soluble competitor were prepared on non-absorbent microtiter plates (Nunc, F, 96 wells) with binding buffer (0.5% TWEEN™ 20/PBS) containing phage at the previously-determined concentrations. […] After blocking, the plates containing immobilized target were washed with 0.05% TWEEN™/PBS buffer and subsequently incubated with 80 μl/well of the premixed phage-competitor solutions for 1 hour at room temperature. […] Numbers in Table I represent mean±standard deviation of individually assessed $IC50$ values.
At least two different clones of every mutant were tested.

B1: IGF-I S1A on phage (G1S-A70V background, gene III fusion) (ligand, bacteriophage M13)
chain: [letters of about 80 residues with changes not shown]SGGGSGSGDFDYEKMANANKGAMTENADENALQSDAKGKLDSVATDYGAAIDGFIGDVSGLANGNGATGDFAGSNSQMAQVGDGDNSPLMNNFRQYLPSLPQSVECRPFVFSAGKPYEFSIDCDKINLFRGVFAFLLYVATFMYVFSTFANILRNKES
notes: range […]; monovalent on M13 phage
Q: Does B1 bind?
A: Result: binds
